This is an account of results in PubChem BioAssay AID1347073 (National Center for Advancing Translational Sciences (NCATS), 2019).

Screen size: about 45,000 compounds; about 200 (0.44%) were called active. Another 7% or so got no clear call; they are omitted. Calls come from the whole dose curve; as a rule, active = well fitted activation curve with a large enough effect; inconclusive = small, poorly fitted or top-dose-only effect; inactive = no such curve, though single readings can be large or run the other way. The list shows a part of the results.

This assay is described as follows: qHTS of TDP-43 Inhibitors: NCGC Sytravon Library Screen. Note: 0% is about no effect; nearly all actives have a fitted effect of over 55% in size. The note with it: yeast TDP-43 toxicity rescue, BacTiter-Glo growth, 24 h; series mostly up to 46.1 µM; growth rescue (activation): at the top concentration. The procedure, abridged: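 TDP-43-expressing yeast, pregrown in raffinose, seeded at OD600 0.02 in galactose medium with compound for 24 hr at 30 deg C. Growth read by BacTiter-Glo luminescence, so rescue of toxicity appears as activation.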
`Cc1c(CC(=O)N[C@@H](C)C(=O)O)c(=O)oc2c(C)c3occ(-c4ccccc4)c3cc12`: the “growth rescue (activation)” value was inactive: -13.8%.

As for `Cc1ccc2cc(C)c3nnc(SCc4ccc(C(=O)O)cc4)n3c2c1C`, the “growth rescue (activation)” value is inactive: 29.6%. The same measure for `CCN(C(=O)COC(=O)/C=C/c1ccc(F)cc1)C1CCCCC1`: inactive: 29.2%; for `CCOC(=O)CC(NC(=O)Cc1ccc(F)cc1)c1ccccc1Cl` (stereo not given): inactive: 7.84%; for `Cc1ccc(NC(=O)CN(C)C(=O)c2cccc(Br)c2)cc1`: inactive: 0.342%. The same measure for `O=C(/C=C/c1ccco1)N1CCc2ccccc21`: inactive: 11.8%; for `Cc1ccc(C(=O)OCC(=O)N2CCCC2)cc1`: inactive: 7.39%; for `Cc1ccc(NS(=O)(=O)c2ccc(CCC(=O)NCc3ccccn3)cc2)cc1`: inactive: -2.63%. The same measure for `Cc1ccc(N2CCN(/N=C/c3cccnc3)CC2)cc1`: inactive: -7.94%. With `Cc1ccc(CN(C)C(=O)c2cccc(S(=O)(=O)N3CCc4ccccc43)c2)cc1`, the “growth rescue (activation)” value is inactive: -4.88%. The same measure for `CC1CCCCC1NC(=O)NC(=O)COC(=O)c1nccnc1N` (stereo not given): inactive: 21.9%; for `O=C(NC12CC3CC(CC(C3)C1)C2)c1cc(F)c(F)c(F)c1F`: inactive: 1.27%; for `N=c1c2ccccc2nnn1-c1cccc(C(F)(F)F)c1`: inactive: 3.77%. Regarding `CCOc1ccc(N(CC(=O)NCCSc2ccccn2)S(=O)(=O)c2ccc(Cl)cc2)cc1`, the “growth rescue (activation)” value is inactive: -11.9%. The same measure for `COC(=O)c1cc(C(=O)OC)cc(S(=O)(=O)Nc2ccc(Cl)c(N)c2)c1`: inactive: 16.5%. The same measure for `O=C(CSC1=NCCS1)NC(NC(=O)CSC1=NCCS1)c1ccccc1`: inactive: -8.45%; for `CCCCCn1c(=O)[nH]c2cc(C(=O)NCCCN3CCCCC3CC)ccc2c1=O` (stereo not given): inactive: 12.6%; for `C/C(=N/NC(=O)c1cccs1)c1cccs1`: inactive: 10.4%.

With `O=C(c1ccco1)N1CCN(Cc2nnc(-c3cccc(Cl)c3)o2)CC1`, the “growth rescue (activation)” value is inactive: 23.5%.

Turning to `CCOc1ccc(CN2CCNC(=O)C2CC(=O)NC2CCOCC2)cc1` (stereo not given), the “growth rescue (activation)” value is inactive: -5.66%. As for `Cc1ccccc1OCC(=O)N/N=C/c1sc(=O)n(Cc2cccc(C(=O)O)c2)c1Cl`, the figure is inactive: 12.3%; as for `CCNC(=O)C1(C)CCCN1Cc1ccccc1Cl` (stereo not given), inactive: -3.16%; as for `Cn1cc(/C=C2\SC(=S)N(N3CCOCC3)C2=O)c2ccccc21`, inactive: 8.21%.

With `COc1ccccc1C(NC(=O)C1CCN(CCOc2ccc3ccccc3c2)CC1)c1ccccn1` (stereo not given), the “growth rescue (activation)” value was inactive: -3.89%.

`CCOc1ccc(NC(=O)N2CCC(c3nc4ccccc4[nH]3)CC2)cc1`: the “growth rescue (activation)” value was inactive: -4.51%. The same measure for `Cc1c(C(=O)NCc2ccc3c(c2)OCO3)cccc1[N+](=O)[O-]`: inactive: 7.53%; for `COc1cc(OC)cc(C(=O)NC(C(=O)Nc2ccc(N3CCOCC3)cc2)C(C)C)c1` (stereo not given): inactive: 9.21%; for `Cc1cccc(OCC(=O)Nc2ccccc2F)c1`: inactive: 11.7%. As for `CCOC(=O)Cc1nn[nH]n1`, the figure is inactive: -1.12%; as for `O=C(NCc1ccccn1)C(=O)Nc1ccccc1`, inactive: -0.203%; as for `Cc1ccc(S(=O)(=O)/N=C(/Nc2cccc(O)c2)c2ccccc2)cc1`, inactive: 0.159%. As for `O=C(CSc1nnc(-c2ccncc2)n1Cc1ccco1)Nc1cccc(O)c1`, the figure is inactive: -10.3%; as for `CC1(C)OC(=CC=Nc2ccc(Cl)cc2)OC1(C)C`, inactive: 16.8%; as for `CC(C)N(C(=O)COC(=O)c1cccnc1Cl)c1ccccc1`, inactive: 18.9%.

As for `CCN(CC)S(=O)(=O)c1ccc(NC(=O)CCNC(=O)c2ccccc2)cc1`, the “growth rescue (activation)” value is inactive: -14.6%.

Turning to `COc1ccc(OC(=O)/C=C/c2ccc([N+](=O)[O-])cc2)cc1`, the “growth rescue (activation)” value was inactive: 10.9%.

On to `Cc1cccc(C)c1NC(=O)C1CCCN1C(=O)Nc1cccc(F)c1` (stereo not given), for which the “growth rescue (activation)” value is inactive: 5.54%. As for `CCn1c(SCc2nc3ccccc3c(=O)[nH]2)nc2ccccc2c1=O`, the “growth rescue (activation)” value was inactive: 5.7%. As for `C=CCn1c(-c2ccc([N+](=O)[O-])cc2)n[nH]c1=S`, the figure is inactive: -9.01%; as for `CCCSc1ncc(Cl)c(C(=O)Nc2ccc(S(=O)(=O)N3CCCC(C)C3)cc2)n1` (stereo not given), inactive: 8.35%; as for `CCOc1ccccc1CN1CCN(Cc2cccc3nonc23)CC1CCO` (stereo not given), inactive: -14.2%.

`Cc1cccc(NC(=S)N(CCN(C)C)Cc2cc3cc(C)cc(C)c3[nH]c2=O)c1`: the “growth rescue (activation)” value was inactive: 4.63%. Take `Cc1ccc(C2C(C(=O)c3sc(C)nc3C)=C(O)C(=O)N2CCN2CCOCC2)o1` (stereo not given): the “growth rescue (activation)” value is inactive: 0.462%. The same measure for `COc1ccc2nc(N3CCCCC3)c(/C=C3\SC(=S)NC3=O)cc2c1`: inactive: 13.7%; for `CC1CCCCC12NC(=O)N(CC(=O)NCCc1ccccc1)C2=O` (stereo not given): inactive: 5.64%. Turning to `CCS(=O)(=O)N1Cc2ccccc2CC1C(=O)OCC(=O)N(C(C)C)C(C)C` (stereo not given), the “growth rescue (activation)” value is inactive: 12.4%. For the molecule `COc1ccc(-n2c(SCC(=O)N3CCCC(C)C3)nnc2-c2cccnc2)cc1` (stereo not given), the “growth rescue (activation)” value is inactive: 18%. The same measure for `COc1ccccc1NS(=O)(=O)c1ccc2oc(SCC(C)=O)nc2c1`: inactive: 3.69%; for `CC(Sc1nc2ccccc2c(=O)n1CCCN1CCOCC1)C(=O)N1CCc2ccccc21` (stereo not given): inactive: 3.45%; for `CCCCC(=O)Nc1cccc(-c2cn3ccsc3n2)c1`: inactive: 0.259%. The same measure for `CN(C)c1ccc(CN(Cc2ccco2)C(=O)COc2ccc(F)cc2)cc1`: inactive: 2.09%. As for `COc1ccc(/C=N/Nc2nncc3ccccc23)cc1`, the figure is inactive: -28%. Turning to `Cn1ccc(C(=O)NC(=S)N2CCSCC2)n1`, the “growth rescue (activation)” value was inactive: -0.738%. Consider `O=C(c1ccc(-c2nc3ccccc3s2)s1)N1CCOCC1`, for which the “growth rescue (activation)” value was inactive: -2.91%. The same measure for `Cc1ccccc1NS(=O)(=O)c1ccc(C(=O)N2CCN(c3ccccn3)CC2)cc1`: inactive: 2.04%.
